Among all 310,000 compounds or so, about 14,000 (4.5%) showed an effect of 50% or more. Effects have a minus sign here. This is one part of the list.

We go through 59 compounds from paper PMC4336329 (PLoS ONE, 2015).
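Also: peak tail current of the secondary pulse compared with the same well before compound.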

This assay deals with human ether-à-go-go-related gene (hERG) potassium channel (human, UniProt Q12809). The assay is described as follows: primary screen, population patch clamp on CHO cells stably expressing hERG.
human ether-à-go-go-related gene (hERG) potassium channel, sequence (Q12809 whole entry, looked up): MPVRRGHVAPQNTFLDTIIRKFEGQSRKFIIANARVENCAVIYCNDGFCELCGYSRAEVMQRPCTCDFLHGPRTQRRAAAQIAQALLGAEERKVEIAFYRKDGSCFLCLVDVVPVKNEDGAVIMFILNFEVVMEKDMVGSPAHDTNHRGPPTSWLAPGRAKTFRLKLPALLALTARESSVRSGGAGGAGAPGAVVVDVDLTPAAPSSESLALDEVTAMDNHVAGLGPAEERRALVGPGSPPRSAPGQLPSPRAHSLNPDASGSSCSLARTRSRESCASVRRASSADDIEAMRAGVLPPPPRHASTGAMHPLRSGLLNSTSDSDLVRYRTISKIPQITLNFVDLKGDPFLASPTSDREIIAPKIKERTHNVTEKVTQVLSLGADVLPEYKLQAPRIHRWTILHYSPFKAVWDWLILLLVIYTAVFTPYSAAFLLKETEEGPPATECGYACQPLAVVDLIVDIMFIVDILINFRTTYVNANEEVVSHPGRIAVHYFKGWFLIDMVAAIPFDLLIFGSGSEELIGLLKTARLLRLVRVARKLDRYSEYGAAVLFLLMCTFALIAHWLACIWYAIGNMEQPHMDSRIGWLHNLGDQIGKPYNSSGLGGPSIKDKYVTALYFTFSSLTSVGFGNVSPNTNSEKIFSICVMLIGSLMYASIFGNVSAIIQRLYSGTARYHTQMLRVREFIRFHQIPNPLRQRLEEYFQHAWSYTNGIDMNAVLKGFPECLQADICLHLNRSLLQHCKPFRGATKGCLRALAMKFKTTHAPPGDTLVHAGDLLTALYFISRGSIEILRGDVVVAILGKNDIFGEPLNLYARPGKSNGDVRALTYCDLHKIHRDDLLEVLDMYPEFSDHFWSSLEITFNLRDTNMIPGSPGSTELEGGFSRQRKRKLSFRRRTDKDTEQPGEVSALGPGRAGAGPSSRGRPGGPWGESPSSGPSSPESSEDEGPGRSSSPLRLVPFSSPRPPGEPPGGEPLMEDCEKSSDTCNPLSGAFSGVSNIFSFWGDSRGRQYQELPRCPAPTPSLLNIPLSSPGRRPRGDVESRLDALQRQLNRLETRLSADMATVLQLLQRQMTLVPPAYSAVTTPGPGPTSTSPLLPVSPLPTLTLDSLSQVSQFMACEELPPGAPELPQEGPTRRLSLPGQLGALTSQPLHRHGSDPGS
For `Cc1cc(O)c(C(C)C)cc1N=Nc1ccccc1C(=O)O`, the “hERG current change (%, negative = inhibition) at 10uM” value is on record as -1.98%.

Regarding `CC(C)Sc1nnc(NC(=O)c2ccco2)s1`, the “hERG current change (%, negative = inhibition) at 10uM” value came out at 14.8%.

With `Cc1cc(C)cc(OCC(=O)Nc2nc3ccc([N+](=O)[O-])cc3s2)c1`, the “hERG current change (%, negative = inhibition) at 10uM” value is 4.71%.

As for `CC1(CCc2ccc3c(c2)OCO3)NCCc2c1[nH]c1ccccc21.Cl` (centres unmarked), the “hERG current change (%, negative = inhibition) at 10uM” value is recorded as -85.8%.

With `Nc1nc(Cn2nnc(-c3ccccc3F)n2)nc(N2CCOCC2)n1`, the “hERG current change (%, negative = inhibition) at 10uM” value is -73.4%.

For `COC(=O)c1cccc(NC(=O)CCSc2ccc(Cl)cc2)c1C`, the “hERG current change (%, negative = inhibition) at 10uM” value is on record as 8.65%.

With `CCCCCC(=O)Nc1cccc(S(=O)(=O)NC2=NCCCCC2)c1`, the “hERG current change (%, negative = inhibition) at 10uM” value was -18.4%.

As for `CC(C)(C)n1nc2c(c1NC(=O)COc1ccc3ccccc3c1)CS(=O)C2` (centres unmarked), the “hERG current change (%, negative = inhibition) at 10uM” value is given as 3.36%.

Regarding `COc1ccccc1NC(=O)/C=C/C(N)=O`, the “hERG current change (%, negative = inhibition) at 10uM” value is -12.9%.

As to `CCOC(=O)CSc1nnc(C)c(=O)[nH]1`, the “hERG current change (%, negative = inhibition) at 10uM” value is on record as 19.8%.

`CSC1=NC(C(Cl)(Cl)Cl)N=C(c2ccccc2)N1` (centres unmarked): the “hERG current change (%, negative = inhibition) at 10uM” value is reported as -1.83%.

`NC1=NC(=Nc2cccc(Cl)c2)c2ccccc21`: the “hERG current change (%, negative = inhibition) at 10uM” value was 2.96%.

As to `COC(=O)c1c(NC(=O)CN2C(=O)C(=O)N(C(C)C)C2=O)sc(C)c1C`, the “hERG current change (%, negative = inhibition) at 10uM” value was -3.9%.

For the compound `COc1ccccc1N1CCN(C2CCCN(C(=O)CCn3cncn3)C2)CC1` (centres unmarked), the “hERG current change (%, negative = inhibition) at 10uM” value was found to be 13%.

On to `CC(C)(C)c1ccc(C(=O)Oc2ccc3c(c2)OCC3=O)cc1`, for which the “hERG current change (%, negative = inhibition) at 10uM” value is 2.55%.

For `CCn1c(C)c(C(C)=O)c(N2CCC(C(N)=O)CC2)nc1=S`, the “hERG current change (%, negative = inhibition) at 10uM” value is reported as 10.3%.

Regarding `COc1ccc(CCNC(=O)CSc2nnc3c(n2)[nH]c2ccc(F)cc23)cc1OC`, the “hERG current change (%, negative = inhibition) at 10uM” value is 12.8%.

Regarding `Nc1c(C(=O)Nc2ccccc2)sc2nc3c(c(-c4ccco4)c12)CCC3`, the “hERG current change (%, negative = inhibition) at 10uM” value came out at 13.1%.

With `Cc1cc(O)c(S(=O)(=O)c2ccccc2)c(C)c1NS(=O)(=O)c1ccccc1`, the “hERG current change (%, negative = inhibition) at 10uM” value is listed as -7.72%.

Turning to `CCN1CCc2nc(NC(=O)C(c3ccccc3)c3ccccc3)sc2C1`, the “hERG current change (%, negative = inhibition) at 10uM” value is listed as -10.9%.

With `Nc1ncccc1OCc1cccc(C(F)(F)F)c1`, the “hERG current change (%, negative = inhibition) at 10uM” value is listed as -4.68%.

On to `NC(=O)[C@@H]1CCCN1C(=O)c1cc(COc2ccc(F)cc2F)on1`, for which the “hERG current change (%, negative = inhibition) at 10uM” value is on record as 22.2%.

Consider `O=C1COc2ccc(S(=O)(=O)N3CCC(C(=O)NCc4ccc(F)cc4)CC3)cc2N1`, for which the “hERG current change (%, negative = inhibition) at 10uM” value turned out to be 10.4%.

For `CCOc1ccc(Cl)cc1CNCCc1ccccc1F.Cl`, the “hERG current change (%, negative = inhibition) at 10uM” value is listed as -59.8%.

Consider `COc1ccc(CCNS(=O)(=O)c2ccc(Cl)cc2)cc1OC`, for which the “hERG current change (%, negative = inhibition) at 10uM” value is -6.54%.

With `CC(=O)Nc1ccc(S(=O)(=O)Nc2ccc3c(c2)CCC3)cc1`, the “hERG current change (%, negative = inhibition) at 10uM” value was -1.39%.

On to `COC(=O)CCn1nnc(-c2ccc(C(C)C)cc2)n1`, for which the “hERG current change (%, negative = inhibition) at 10uM” value is listed as -9.31%.

Take `CCC(C)(C)n1nnnc1C(c1ccccc1OC)N1CCSCC1` (centres unmarked): the “hERG current change (%, negative = inhibition) at 10uM” value was -24.1%.

With `Cc1ccc(NC(=O)CCC(=O)NNC(=O)c2ccco2)c(C)c1`, the “hERG current change (%, negative = inhibition) at 10uM” value was -3.29%.

Take `CSc1ncc(C(=O)Nc2cc(C)ccc2C)c(C)n1`: the “hERG current change (%, negative = inhibition) at 10uM” value is recorded as -34.7%.

As to `CCC(CC)C(=O)Nc1nnc(S(=O)(=O)N2CCCCCC2)s1`, the “hERG current change (%, negative = inhibition) at 10uM” value amounted to 1.54%.

Take `O=C(CSc1nnc(-c2ccccc2)n1C1CCCCC1)N1CCCC1`: the “hERG current change (%, negative = inhibition) at 10uM” value is reported as -6.76%.

Take `Cc1nc([N+](=O)[O-])cn1CC(=O)c1ccc(F)cc1`: the “hERG current change (%, negative = inhibition) at 10uM” value is 10.5%.

Take `COc1cccc(C2CC(c3cccs3)=NN2S(C)(=O)=O)c1OC` (centres unmarked): the “hERG current change (%, negative = inhibition) at 10uM” value was 7.29%.

As to `O=C(Nc1ccc(CN2CCOCC2)cc1)c1cc(Cl)ccc1Cl`, the “hERG current change (%, negative = inhibition) at 10uM” value was 0.807%.

On to `O=C(CCSc1nc(-c2ccco2)cc(C(F)(F)F)n1)N1CCN(c2ccccn2)CC1`, for which the “hERG current change (%, negative = inhibition) at 10uM” value is listed as -43.1%.

Take `CCc1ccc(C(=O)N/N=C/c2cccc3ccccc23)nc1`: the “hERG current change (%, negative = inhibition) at 10uM” value stood at 1.8%.

With `O=C(CCc1ccccc1)NNC(=O)COc1ccccc1Cl`, the “hERG current change (%, negative = inhibition) at 10uM” value came out at 14%.

For the compound `Cl.O=C1C2CCN(CC2)C1Cc1ccc(OCCOc2ccccc2)cc1` (centres unmarked), the “hERG current change (%, negative = inhibition) at 10uM” value is listed as -20.2%.

For `COC(=O)c1sc(N)c(C(=O)OC)c1COC(=O)C12CC3CC(CC(O)(C3)C1)C2`, the “hERG current change (%, negative = inhibition) at 10uM” value stood at 5.88%.

Take `CCOc1ccc(N2C(=O)/C(=C/c3ccco3)N(C)C2=S)cc1`: the “hERG current change (%, negative = inhibition) at 10uM” value is listed as -4.46%.

Turning to `CC1(C)Cc2c(sc3nc4n(c(=N)c23)CCC4)CO1`, the “hERG current change (%, negative = inhibition) at 10uM” value is 4.27%.

Turning to `FC(F)Oc1ccc(NC(=S)NC2CCCCCCC2)cc1`, the “hERG current change (%, negative = inhibition) at 10uM” value is recorded as 7.35%.

Consider `NC(=O)c1nsc(C(=O)N(CC(=O)NCc2ccco2)c2ccccc2F)c1N`, for which the “hERG current change (%, negative = inhibition) at 10uM” value is on record as -33.2%.

In the case of `O=C(CCSc1ccccn1)Nc1ccc(Br)cc1`, the “hERG current change (%, negative = inhibition) at 10uM” value is given as -27%.

Consider `Cc1[nH]nc2c1C(c1ccoc1)C(C#N)=C(N)O2` (centres unmarked), for which the “hERG current change (%, negative = inhibition) at 10uM” value was -8.65%.

On to `C=CCNC(=O)C1CCN(S(=O)(=O)c2cccs2)CC1`, for which the “hERG current change (%, negative = inhibition) at 10uM” value stood at 16.6%.

For `COc1ccc(-c2noc(CCC(=O)NCCCN3CCC(C)CC3)n2)cc1`, the “hERG current change (%, negative = inhibition) at 10uM” value is recorded as -5.81%.

Regarding `COc1ccc(-c2cc3ccccc3cn2)cc1`, the “hERG current change (%, negative = inhibition) at 10uM” value is on record as 14.5%.

Consider `Cc1ccc(C)c(OCC(=O)NCC(C)(C)N2CCOCC2)c1`, for which the “hERG current change (%, negative = inhibition) at 10uM” value is listed as -21.9%.

On to `O=C1CC(C(=O)N2CCN(c3ccc(F)cc3)CC2)CN1CCc1ccccc1` (centres unmarked), for which the “hERG current change (%, negative = inhibition) at 10uM” value is given as -50.5%.

For the compound `CCN(CC)CC(=O)N1c2ccccc2Oc2c(c(=O)n(C)c(=O)n2C)C1c1cccc([N+](=O)[O-])c1` (centres unmarked), the “hERG current change (%, negative = inhibition) at 10uM” value was -7.86%.

Take `Cc1ccc(-n2c(C)cc(/C=N/Nc3ccc([N+](=O)[O-])cn3)c2C)c(C)c1`: the “hERG current change (%, negative = inhibition) at 10uM” value is listed as 10.4%.

Consider `CC1(CO)COC(c2ccccc2)=N1` (centres unmarked), for which the “hERG current change (%, negative = inhibition) at 10uM” value is reported as -13%.

In the case of `COCC(=O)Nc1nc(-c2ccc(-c3ccccc3)cc2)cs1`, the “hERG current change (%, negative = inhibition) at 10uM” value is given as 17.5%.

Regarding `CC(C)(C)n1cc(S(=O)(=O)c2ccccc2)[nH]c1=O`, the “hERG current change (%, negative = inhibition) at 10uM” value is listed as 16.5%.

On to `COc1ccc([N+](=O)[O-])cc1N(CC(O)CN1CCOCC1)S(=O)(=O)c1ccccc1` (centres unmarked), for which the “hERG current change (%, negative = inhibition) at 10uM” value is given as 20%.

In the case of `COc1ccc(C2CC(c3cccs3)=Nc3ccccc3S2)cc1OC` (centres unmarked), the “hERG current change (%, negative = inhibition) at 10uM” value is recorded as 13.3%.

Consider `CCCCc1ncc(CN2CCC(n3nccc3NC(=O)c3ccccc3Cl)CC2)[nH]1`, for which the “hERG current change (%, negative = inhibition) at 10uM” value is on record as -40.3%.
